{"source": "PubChem BioAssay AID1347165", "about": "(National Center for Advancing Translational Sciences (NCATS), 2019)", "note": "About 5,700 (2.6%) of roughly 220,000 compounds were called active. The shares of active, inactive and inconclusive entries below differ from those in the screen. The call rests on the fitted dose curve; in most records, active means well fitted inhibition curve with a large enough effect; inconclusive means small, poorly fitted or top-dose-only effect; inactive means no such curve, though single readings can be large or run the other way. A potency beside an inconclusive call is a rough fit, not a confirmed value. Potency means the concentration at half of the fitted maximal effect; tags describe the fitted curve by direction and shape.", "data": [{"target": "Lysine-specific demethylase 5B (Homo sapiens) (UniProt Q9UGL1)", "sequence (Q9UGL1 whole entry, looked up)": "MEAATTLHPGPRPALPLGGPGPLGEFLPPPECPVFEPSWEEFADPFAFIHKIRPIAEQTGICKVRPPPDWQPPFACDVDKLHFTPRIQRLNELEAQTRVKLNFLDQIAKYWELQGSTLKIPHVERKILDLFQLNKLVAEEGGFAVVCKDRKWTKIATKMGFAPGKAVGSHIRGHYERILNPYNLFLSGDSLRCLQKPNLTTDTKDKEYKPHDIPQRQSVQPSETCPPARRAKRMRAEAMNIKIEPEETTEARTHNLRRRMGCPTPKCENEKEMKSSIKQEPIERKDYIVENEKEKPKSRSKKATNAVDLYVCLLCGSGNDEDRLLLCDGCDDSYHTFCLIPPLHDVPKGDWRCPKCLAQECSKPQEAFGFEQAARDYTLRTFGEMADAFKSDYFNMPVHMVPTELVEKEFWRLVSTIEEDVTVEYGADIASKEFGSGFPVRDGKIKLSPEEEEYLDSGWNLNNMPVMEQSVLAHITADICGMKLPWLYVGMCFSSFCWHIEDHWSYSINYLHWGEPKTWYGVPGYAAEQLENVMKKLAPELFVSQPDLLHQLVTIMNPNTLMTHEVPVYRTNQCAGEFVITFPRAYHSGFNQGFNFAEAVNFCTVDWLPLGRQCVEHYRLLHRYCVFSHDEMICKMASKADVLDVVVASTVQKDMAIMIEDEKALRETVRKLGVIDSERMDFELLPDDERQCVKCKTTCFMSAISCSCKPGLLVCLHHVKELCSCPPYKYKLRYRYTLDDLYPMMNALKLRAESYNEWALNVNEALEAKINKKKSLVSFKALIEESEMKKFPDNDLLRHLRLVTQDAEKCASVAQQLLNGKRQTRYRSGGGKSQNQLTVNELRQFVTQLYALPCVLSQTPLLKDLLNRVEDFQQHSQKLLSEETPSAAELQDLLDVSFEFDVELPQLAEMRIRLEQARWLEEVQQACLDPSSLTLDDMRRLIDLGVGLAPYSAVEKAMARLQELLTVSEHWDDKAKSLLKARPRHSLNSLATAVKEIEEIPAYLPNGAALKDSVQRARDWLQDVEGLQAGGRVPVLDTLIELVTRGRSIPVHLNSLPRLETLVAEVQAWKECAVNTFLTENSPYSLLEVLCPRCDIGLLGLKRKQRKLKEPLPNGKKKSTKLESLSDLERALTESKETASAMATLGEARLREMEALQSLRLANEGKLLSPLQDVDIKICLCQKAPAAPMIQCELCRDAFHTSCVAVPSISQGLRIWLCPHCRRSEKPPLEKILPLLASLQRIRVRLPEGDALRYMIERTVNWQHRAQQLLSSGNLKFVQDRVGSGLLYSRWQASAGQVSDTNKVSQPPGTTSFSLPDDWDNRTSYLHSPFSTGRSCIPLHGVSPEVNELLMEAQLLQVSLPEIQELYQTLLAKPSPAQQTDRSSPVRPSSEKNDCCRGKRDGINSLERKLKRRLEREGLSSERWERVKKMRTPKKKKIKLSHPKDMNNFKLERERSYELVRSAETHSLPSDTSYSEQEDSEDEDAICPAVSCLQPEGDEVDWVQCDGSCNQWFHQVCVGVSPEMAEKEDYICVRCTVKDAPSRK", "experiment": "Primary screen for KDM5B Histone Demethylases FDH-coupled qHTS; further: nearly all actives have a fitted effect of over 70% in size; on activity change, negative = inhibition: 0% is about no effect", "details": "FDH-coupled NADH fluorescence (FDH is formaldehyde dehydrogenase); activity change, negative = inhibition: at 57.7 µM (top of the series) unless noted", "in_short": "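Compound dilutions met 200 nM (final) KDM5BΔAP for 10 min at room temperature before substrate addition. The substrate mix held 12.5 µM H3K4me3 with cofactors 25 µM α-ketoglutarate and 50 µM Fe²⁺. NADH signal gain over 30 min defined activity.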", "values": [{"smiles": "COC(=O)c1c(-c2cccs2)csc1NC(=O)c1cccc(Cl)c1", "Potency": "inconclusive: 31.6 µM [inhibitor, partial curve, poor fit]"}, {"smiles": "CC(=O)Nc1ccc(NC(=O)Cn2ccn3nc(-c4ccccc4)c(CO)c3c2=O)cc1", "Potency": "inconclusive: 22.4 µM [inhibitor, single point]"}, {"smiles": "CCn1cc(CN2CCC(N3C(=O)C4(CCCC4)C3c3ccccc3)CC2)cn1", "note": "(stereo not drawn)", "activity change, negative = inhibition": "inactive: -11.6%"}, {"smiles": "Cc1[nH]n(-c2ccccc2)c(=O)c1C(c1cc(Cl)ccc1O)c1c(C)[nH]n(-c2ccccc2)c1=O", "Potency": "inconclusive: 1.12 µM [inhibitor, full curve, poor fit]"}, {"smiles": "CCCn1c(=O)n(CC(=O)NCC(=O)Nc2cccc(C)c2C)c2ccccc21", "activity change, negative = inhibition": "inactive: 6.18%"}, {"smiles": "O=C1Nc2ccc(-c3cccc(C(F)(F)F)c3)cc2C(=O)N2CCN(C(=O)NC3CCCCC3)C[C@H]12", "Potency": "inconclusive: 25.1 µM [inhibitor, partial curve, poor fit]"}, {"smiles": "O=C(c1ccn[nH]1)N1CCC2(CC1)CC(N1CCN(c3ccccn3)CC1)CCO2", "note": "(stereo not drawn)", "activity change, negative = inhibition": "inactive: 14.6%"}, {"smiles": "COc1ccc(-c2coc3cc(OCC(=O)NCc4ccccc4Cl)ccc3c2=O)cc1OC", "activity change, negative = inhibition": "inactive: 1.06%"}, {"smiles": "Cc1cccc(C(=O)Nc2cccc(-c3nc4ccccc4o3)c2)c1", "activity change, negative = inhibition": "inactive: 13.4%"}, {"smiles": "CCCC(=O)Nc1ccc(-c2csc(N/N=C\\c3ccncc3)n2)cc1", "activity change, negative = inhibition": "inactive: -6.76%"}, {"smiles": "COc1cccc(CNC(=O)[C@@H]2C[C@@H](O)CN2C2CCN(C(=O)Cc3cccc(OC)c3)CC2)c1", "activity change, negative = inhibition": "inactive: 20.5%"}, {"smiles": "COCCN1C(=O)Cc2ccccc2C1C(=O)N(C)Cc1ccco1", "note": "(stereo not drawn)", "Potency": "inconclusive: 31.6 µM [inhibitor, single point]"}, {"smiles": "Cc1cc(=O)c2cc(C(=O)Nc3nnc(CC(C)C)s3)ccc2[nH]1", "Potency": "inconclusive: 25.1 µM [inhibitor, partial curve, poor fit]"}, {"smiles": "CN(C)c1cccc(C(=O)NCC2CCN(c3cc(-c4ccc(F)cc4)[nH]n3)CC2)c1", "Potency": "active: 20 µM"}, {"smiles": "Cc1cc(C(=O)NC(C)c2ccccc2Cl)c2cnn(C(C)C)c2n1", "note": "(stereo not drawn)", "Potency": "inconclusive: 1.58 µM [inhibitor, partial curve, poor fit]"}, {"smiles": "Cc1c(CCC(=O)Nc2nc3ccccc3[nH]2)c(=O)oc2c(C)c(O)ccc12", "Potency": "inconclusive: 15.8 µM [inhibitor, partial curve, poor fit]"}, {"smiles": "Cc1ccc(-c2cc(C(=O)N3CCN(C(=O)c4ccco4)CC3)c3ccccc3n2)cc1", "Potency": "inconclusive: 28.2 µM [inhibitor, partial curve, poor fit]"}, {"smiles": "COc1cccc(-n2cc(C(=O)Nc3cccc(C(F)(F)F)c3)c3ccccc3c2=O)c1", "Potency": "inconclusive: 39.8 µM [inhibitor, single point]"}]}]}
